To fix the notation:
B1: CPEB3 Ribozyme (parent)
chain: UAACAGGGGGCCACAGCAGAAGCGUUCACGUCGCAGCCCCUGUCAGAUUCUGGUGAAUCUGCGAAUUCUGCUGUAUAUCUC

The source gives no read counts; variants with many changes may rest on few reads.

The variants in this series derive from B1. Description: self-cleavage, relative activity (ratio to wild type); higher = more cleavage; in vitro, sequencing. In a few lines: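 Barcoded CPEB3 ribozyme mutants, produced by rounds of error-prone PCR, self-cleaved while being transcribed with T7 RNA polymerase for 5 hours at 37°C and during a subsequent 15 min DNase I step before EDTA was added. Sequencing of template-switched cDNA on Illumina gave cleaved and total reads, and DNA sequencing assigned barcodes to variants. Each variant's relative activity is its cleaved/total read fraction divided by the unmutated ribozyme's fraction, averaged across three batches. A variant needed a minimum of 5 reads.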
Take G8U A35U A57C U72C: the self-cleavage stood at 0.07. On to G9A A21G G53U A57C U72C, for which the self-cleavage was determined as 0.09.

For G8U A15G U31A, the self-cleavage was 0.03. For the variant G9U U60C U66C U69C, the self-cleavage was determined as 0.04. For G9A C32U A35U A47U, the self-cleavage worked out at 0.12. In the case of G9A A15G A21G U51C A57U, the self-cleavage turned out to be 0.05. For the variant G9A C23A U54C, the self-cleavage worked out at 0.19. As for G9U U31G A35G A57G U67C, the figure is 0.15. In the case of G9A A20U U26A, the self-cleavage worked out at 0.11. For G8C U25A U31C A47G U54A A64U G73U, the self-cleavage amounted to 0.04. As for G9A G16A G24U U26G G52C U58C, the figure is 0.04. On to G9U U43A A77U, for which the self-cleavage was 0.35.

Consider G8U A28U C71U, for which the self-cleavage came out at 0.06. Consider G9U A18U A21G A45U C68A U80C, for which the self-cleavage was 0.33. As for G9U C11G A20G U26C A35G U41C U69A, the figure is 0.04; as for G8A U26A C38A A57U G70C, 0.04; as for G9U A13G U26C A64G, 0.25. G9C A20U U43C U54C: the self-cleavage amounted to 0.17. With G9U G22U U76A, the self-cleavage came to 0.03. As for G9A C11G A13G A21G U26A A57G U58C, the figure is 0.06. Regarding G9A A15G G53C U80C, the self-cleavage is 0.38. As for G8U U25C C27U G36C C40U U43A A57G, the figure is 0.13; as for G10A A18U A47G U48A, 0.03. As to G9C C40A U67G U69C U72G U80C, the self-cleavage was determined as 0.02. Take G8C A15U G36A U41C C50A U60C: the self-cleavage was 0.06. Take G8A G24A U26A A56G: the self-cleavage amounted to 0.16. On to G8C A15U A35G U54C, for which the self-cleavage amounted to 0.25. As for G8A U31C U69C U72C U78C, the self-cleavage is 0.05. The same measure for G9C A20G A21G U41C A64U U76C: 0.07. G9U G24A U43A A56G U72A U80C: the self-cleavage worked out at 0.33. Turning to G8A U58C A64G U69A, the self-cleavage came to 0.06. In the case of G8A U25C C40U U49C U72C, the self-cleavage came to 0.05. Regarding G9A A13G U31C G33A C37U U74A, the self-cleavage is 0.07. As for G9C G19C A20G, the figure is 0.08. In the case of G10A A13G G36A U49C U51A A64G U74C, the self-cleavage amounted to 0.03.

For G9A G10C U51C U60C U66A, the self-cleavage was 0.12. In the case of G9A U66C U69C, the self-cleavage worked out at 0.07.

Consider G9U U26C C32U, for which the self-cleavage was found to be 0.06.

In the case of G9A U69A U76C, the self-cleavage amounted to 0.08. The same measure for G9U U51C A57G U66C U69A: 0.05; for G8U G9U U26A U41C U49C: 0.17; for G8C A35G C37G U41C C59A U78C: 0.25. The same measure for G9A A20U C38A C81U: 0.05.

For G10A A18G U41C U78C, the self-cleavage was determined as 0.08.

Regarding G9U A15G A18U A20C A28U U66C, the self-cleavage turned out to be 0.04. For G9U U25C A77G, the self-cleavage is 0.18. Consider G10A A18G A77G, for which the self-cleavage was 0.17.

For the variant G10A A13G A15G G22C C38U A56U, the self-cleavage is 0.05. Regarding G10A A13U U80A, the self-cleavage was 0.43. For G9A U41C U51C U60C U78C, the self-cleavage was determined as 0.08. With G10A A18G U25C A35G A64G A65G A77U, the self-cleavage was 0.03. As for G8U G19U U51A U69C, the figure is 0.03; as for G9A A13G A18G U66C U76C U78C, 0.07. Take G9A A35G U49A: the self-cleavage was determined as 0.4. As to G9U A18G U43C A75G, the self-cleavage was found to be 0.04. As to G9A A35G U41C U66C, the self-cleavage was found to be 0.24. Regarding G8U A13G U43C U80C, the self-cleavage was found to be 0.03. For the variant G9U C29G U41C U48C U72C, the self-cleavage came to 0. With G9A U25A A45G, the self-cleavage is 0.19. In the case of G8A U31C U67G, the self-cleavage came to 0.08.

As for G8A U51C U60C U72A U74C, the self-cleavage came out at 0.06. Turning to G9U U25A A64G, the self-cleavage was determined as 0.33. As for G8U C27G U67C U72A, the figure is 0.08. For G8U A18G U25C U43C, the self-cleavage came to 0.18.

G9A U69C U78A: the self-cleavage came to 0.2. Turning to G9U A21G U43A U48G A64G, the self-cleavage amounted to 0.08. For the variant G9A A18U C29U A45G U69C, the self-cleavage was 0.12. As for G8U A18G A64G G70C, the self-cleavage was 0.05. On to G9C A18G G36A U60C, for which the self-cleavage was found to be 0.05. G8A G24A U67A U69C U78C: the self-cleavage is 0.07. For the variant G8U A13U A47G U51C A65G, the self-cleavage is 0.04.

Consider G9A G33A U60A C68U, for which the self-cleavage is 0.05.

For the variant G8A U69A U78C, the self-cleavage came to 0.07. As for G9C A21G A47G A77U, the figure is 0.07; as for G9A U25C U49G, 0.03; as for G10A A18G U26A A64U U67C, 0.1.

With G9A G30A A35U U60C U80C, the self-cleavage stood at 0.07.

As for G10A A18G U31C C38U U69A, the self-cleavage was found to be 0.04.

As for G9U U26C U41A A77G, the self-cleavage was determined as 0.15. With G9A U31A A45U U51C U67C, the self-cleavage is 0.12. For the variant G8A U25C U31C C62G, the self-cleavage is 0.05. As to G8C C11G U26C A47G U66C U72G U78C, the self-cleavage came to 0.02. For the variant G8U A21U A57G U72A, the self-cleavage is 0.1.

The values above are taken from the RNAGym collection of RNA variant scans (doi:10.1093/nar/gkz1192).
